The values below come from PubChem BioAssay (NCI).

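Each compound was tested at five concentrations against cells in 96-well plates for 48 hours. GI50 marks 50% less growth. TGI is the concentration that stops growth completely.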 Numbered stars: 1 amine (or outer) side, 2 acyl side, 3 side chain; on linkers, the order of the positions; unused ones are H or OH. Bridge positions count the residues as written; N and C are the ends. Square brackets hold non-standard residues; d marks the D form. Peptide text beside a SMILES is read from it. I, II: the chains in the order shown. ξ: configuration not given here. Actinocin(1to9) = Cc1c2oc3c(C)ccc(C(=O)[*:2])c3nc-2c(C(=O)[*:1])c(N)c1=O; Pro(4-oxo) = O=C1CN[C@H](C(=O)O)C1; Thr(3ξ) = CC(O)[C@H](N)C(=O)O; NMeV = CN[C@H](C(=O)O)C(C)C; Sar = CNCC(=O)O

The subject of this assay is NCI-H322M lung. Kind of assay: NCI-60 cell line screen, 48 h.

As for `O=C(c1ccccc1)c1ccc2nc(-c3ccccc3Br)[nH]c2c1`, the GI50 was 5.5 µM and the TGI is 18.2 µM.

For the compound `Nc1ccc(-c2ccc3ncnc(N4CCc5cc(F)c(Cl)cc54)c3c2)cn1`, the GI50 is 1.35 µM and the TGI turned out to be 8.69 µM.

As to `COc1ccc(CCN2C(=O)/C(=C/c3csc(C#N)n3)SC2=S)cc1OC`, the GI50 was 89.1 µM and the TGI is more than 100 µM.

With `CC(=O)Oc1ccccc1C(=O)Oc1ccc(C(=O)/C=C/c2ccncc2)cc1`, the GI50 is 19.4 µM and the TGI amounted to 79.2 µM.

Consider `Cc1c2oc3c(C)ccc(C(=O)N[C@@H]4C(=O)N[C@H](C(C)C)C(=O)N5CCC[C@H]5C(=O)N(C)CC(=O)N(C)[C@@H](C(C)C)C(=O)OC4C)c3nc-2c(C(=O)N[C@@H]2C(=O)N[C@H](C(C)C)C(=O)N3CC(=O)C[C@H]3C(=O)N(C)CC(=O)N(C)[C@@H](C(C)C)C(=O)OC2C)c(N)c1=O` (stereo not given in full) (I: [Thr(3ξ)][dV][Pro(4-oxo)][Sar][NMeV] / II: [Thr(3ξ)][dV]P[Sar][NMeV]; ester I:1-I:C, II:1-II:C; linker I:N-II:N via Actinocin(1to9)), for which the GI50 is less than 0.01 µM and the TGI was less than 0.018 µM.
